The source gives no read counts; variants with many changes may rest on few reads.
B1: CPEB3 Ribozyme (parent)
chain: UAACAGGGGGCCACAGCAGAAGCGUUCACGUCGCAGCCCCUGUCAGAUUCUGGUGAAUCUGCGAAUUCUGCUGUAUAUCUC

Variants of: B1
Assay: self-cleavage, relative activity (ratio to wild type); higher = more cleavage; in vitro, sequencing
In short: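 Barcoded CPEB3 ribozyme mutants, produced by rounds of error-prone PCR, self-cleaved while being transcribed with T7 RNA polymerase for 5 hours at 37°C and during a subsequent 15 min DNase I step before EDTA was added. Sequencing of template-switched cDNA on Illumina gave cleaved and total reads, and DNA sequencing assigned barcodes to variants. Each variant's relative activity is its cleaved/total read fraction divided by the unmutated ribozyme's fraction, averaged across three batches. A variant needed a minimum of 5 reads.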

Row | Variant | self-cleavage
1 | UAACAGGGGGCCACAGCGGAAGCGUUCACAUCGCAGCCCUUGCCAGGUUCUGGUGGAUCUGCGAAUUCCGCUGUAUAUCUC | 0.14
2 | UAACAGGGGGCCACAGCGGAAGCGCUCACGUUGCAGCCCCUGUCAGAUCCUGGUGAAUCUGCGAAUUCUGCUGUAUACCUC | 0.07
3 | UAACAGGGGGCCACAGCGGAAGCGCUCACGUCGCAGCCCCUGUCAGAUUCUGGGGAAUCUGCGAAUUCUGCUGUAUAUCUC | 0.26
4 | UAACAGGGGGCCACAGCGGAAGCGUUCACGUCGCAGCCCCUGUCAGAUUCUCGUGAAACUGCGGAUUCUGCUGUAUAUCCC | 0.35
5 | UAACAGGGGGCCACAGCGGAAGCGUUCACGUCGCAGCCCCUUUCAGAUUCUGGUGAAUCUGCGAAUUCUGCUGUUUAUCUC | 0.27
6 | UAACAGGGGGCCACAGCGGAAGCAUACACGUCGCAGCCCCUGUCAGAUUCUGGUGAGUCUGCGAAUUCUGCUGUAUAUCUC | 0.23
7 | UAACAGGGGGCCACAGCGGAAGCGUUCACGUCUCAGCCCCUGUCAGAUUCUGGUGAAUCUGCGAACUCUGCUGUAUAUCAC | 0.07
8 | UAACAGGGGGCCACAGCGGAAGCGUUCACAUCGCAGCCCCUGUCAGAUUCAGGUGAACCUGCGGAUUCAGCUGUAUAUCUC | 0.02
9 | UAACAGGGGGCCACAGCGGAAGCGAUCACGUCGCAGCCCCUGUCAGAUUCUGGUGAAACUGCGAAUUCCGCAGUACAUCUC | 0.04
10 | UAACAGGGGGCCACAGCGGAAGCGUUCACGUCGCAGCCCCUGUCAGAUUCUCGUGUAUCUGCGAGUUCUGCUGUAUAUCUC | 0.24
11 | UAACAGGGGGCCACAGCGGAAGCGUUCACGUCGCAGCCCCUCUCAGAUCCUGGUGAGUCUGCGAGUUCUGCUGUAUAUCUC | 0.1
12 | UAACAGGGGGCCACAGCGGAAGCGCUCACGUCGCAGCCCCUGUCCGAUUCUGGUGAAUCUGCGAAUUCUGCUGUAUAUCUC | 0.39
13 | UAACAGGGGGCCACAGCGGAAGCGCUCACGUCGCAGCCCCUGUCAGAUUCUGGUGUAUCCGCGAAUUCUGACGUAUAUCUC | 0.03
14 | UAACAGGGGGCCACAGCGGAAGCGCUCACGUCGCAGCCCCUGUCAGAUUCUGGUGAAUCUGCGAAUUCUGGUGUACAUCUC | 0.02
15 | UAACAGGGGGCCACAGCGGAAGCGCUCACGCCGCAGCCCCUGUCAGAUCCUGGUGAAUCUGCGAACUCGGCUGUAUAUCUC | 0
16 | UAACAGGGGGCCACAGCGGAAGCGCUCACGUCGCGGCCCCUGUCAGAUUCAGGUGAGUCUGCGAAUUCCGCUGUAUAUCUC | 0.42
17 | UAACAGGGGGCCACAGCGGAAGCGCCCACGUCGCAGCCCCUGUCAGAUUCUGGUGAAUCUGCGAAUUCUGCCGUAUAUCUC | 0.15

Row | Variant | self-cleavage
18 | UAACAGGGGGCCACAGCGGAAGCGUUCACAUCGCAGCCCCUGUCCGAUUCUGGUGAAUCUGCGAAUUCUGCUGUAUAUCUC | 0.17
19 | UAACAGGGGGCCACAGCGGAAGCGCUCACGUCGCAGCCCCUGCCAGAUUCUGGUGAAUCUGCGAAUUCGGCUGUAUAUCUC | 0.15
20 | UAACAGGGGGCCACAGCGGAAGCGUUCACGUCGCAGCCCCUGUCAGAUUCUGAUGAAUCUGCGAAUUCUGCUUUAUAUCUC | 1.22
21 | UAACAGGGGGCCACAGCGGAAGCGUUCACUUCGCAGCCCCUGUCAGAUUCUGAUGAAUCCGCGAACUCUGCUGUAUAUCUC | 0.17
22 | UAACAGGGGGCCACAGCGGAAGCGUUCACGUCGCAACCCCUGUCAGAUUCUGGUGAAUCUGCGGAUACUGCUGUAUAUCUC | 0.18
23 | UAACAGGGGGCCACAGCGGAAGCGCCCACGUCGCAGCCCCUGUCAGAUUCUGGUGAAUCUGCGAAUUCUGCUGUAUAUCUC | 0.31
24 | UAACAGGGGGCCACAGCGGAAGCGUUCACGUCCCAACCCCUGUCAGAUUCUGGUGAAUCUGCGAAUUCUGCGGUAUAUCAC | 0.15
25 | UAACAGGGGGCCACAGCGGAAGCGCUCACGUCGCGGCCCCUGUCAGAUUCCGGUGAAUUUGCGAAUUCUGCUGUAUGACUC | 0.07
26 | UAACAGGGGGCCACAGCGGAAGCGUUCACGUCACAGCCCCUGGCAGAUUCUGGCGAAUCUGCGAAUUCUGCUGUAUAUCUC | 0.15
27 | UAACAGGGGGCCACAGCGGAAGCAUUCACGUCGCAGCCCCUGACAGAUUCAGGUGAAUCUGCGAAUGCUGCUGUAUAUCUC | 0.34
28 | UAACAGGGGGCCACAGCGGAAGCGCUCUCGUCGCAGCCCCAGUCAGAUUCUGGUGAAUCUGCGAAUUCUGCUGUAUAUCUU | 0.08
29 | UAACAGGGGGCCACAGCGGAAGCGCUCACGUCGCAGCCCCUGCCAGAUUCUGGUGAAUCUGCGAAUUCUGCUGUAUAUCUC | 0.28
30 | UAACAGGGGGCCACAGCGGAAGCGUUCACGUCGCAGCCCCUAUCGGACUCUGGUGAAUCUGCGAAUUCUGCUGUAUAUCUC | 0.22
31 | UAACAGGGGGCCACAGCGGAAGCGUACGCGUCGCAGCCCCUGACAGAUUCUGGUGAAUCCGCGAAUUCUGCUGUAUAUCUC | 0.11
32 | UAACAGGGGGCCACAGCGGAAGCGUUCACGUCCCACCCCCUGUCAGAUUCUGGUGAAUCUGCGAAUUCUGCUGUAUAUCUC | 0.31
33 | UAACAGGGGGCCACAGCGGAAGCGCUCACGUCGCAGCCCCUGUCAGAUUCUGGUGAAUCUGCGAGUUCUGCUGUAUAUCUC | 0.25
34 | UAACAGGGGGCCACAGCGGAAGCGCUCACGUCGCAGCUCCUGCCAGGUUCCGGUGAAUCUGCGAAUUCUGCUGUAUAUCUC | 0

Source: the RNAGym collection of RNA variant scans (doi:10.1093/nar/gkz1192)
